Reference: a compilation of properties of binary mixtures (doi:10.1021/je050444g)
The densities may have been worked out from excess volumes.

Assay: xn = mol fraction of the nth substance listed
Conditions: 308.15 K, 100 kPa

CS(C)=O + COC(=O)OC
Conditions	mass density [kg/m3]
x1 = 0.2791	1060.8
x1 = 0.371	1064
x1 = 0.5007	1068.2
x1 = 0.5479	1069.8
x1 = 0.626	1072.3
x1 = 0.8572	1080
x1 = 0.9283	1082.6

CC1COC(=O)O1 (stereo unspecified) + CS(C)=O
Conditions	mass density [kg/m3]
x2 = 0.0506	1184
x2 = 0.1139	1177.8
x2 = 0.2014	1168.9
x2 = 0.2976	1159.1
x2 = 0.4759	1140.6
x2 = 0.5376	1134.1
x2 = 0.6343	1123.9
x2 = 0.8643	1099.6
x2 = 0.9376	1091.8

CCOC(=O)OCC + CS(C)=O
Conditions	mass density [kg/m3]
x2 = 0.0902	965.1
x2 = 0.2655	980.8
x2 = 0.3678	991
x2 = 0.468	1001.9
x2 = 0.5579	1012.7
x2 = 0.6013	1018.3
x2 = 0.6456	1024.2
x2 = 0.7167	1034.4
x2 = 0.8439	1054.9
x2 = 0.9239	1069.7
